Experimental data from US20220127354A1 (Amgen, published 2022).

How the values were obtained:
Assay in all cases: flow cytometry, transfected 293T cells, 2 mM CaCl2
[1] = target: T1, huCDH19(1-43)::FLAG::hu(44-141)::ckCDH19(142-776) (construct K, Hu EC1) (human/chicken chimera);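 note: binding of Alexa647-labelled anti-CDH19 antibodies to cells expressing human/chicken CDH19 chimeras, read as cell-bound fluorescence, with mock-transfected cells as controls, n.d. meaning not determined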
T1 construct: leader (1-43 of the entry) left out; also called huCDH19(44-141)::ckCDH19(142-776)

[2] = target: T2, rhCDH19(1-43)::FLAG::rhCDH19(44-65)::caCDH19(65-770) (construct S, rh EC1a) (rhesus macaque/dog chimera)
T2 construct: leader (1-43 of the entry) left out

[3] = target: T3, raCDH19(1-43)::FLAG::raCDH19(44-770) (construct W, Ra EC1-5) (rat)
T3 construct: leader (1-43 of the entry) left out; also called rat Cadherin19
T3 chain: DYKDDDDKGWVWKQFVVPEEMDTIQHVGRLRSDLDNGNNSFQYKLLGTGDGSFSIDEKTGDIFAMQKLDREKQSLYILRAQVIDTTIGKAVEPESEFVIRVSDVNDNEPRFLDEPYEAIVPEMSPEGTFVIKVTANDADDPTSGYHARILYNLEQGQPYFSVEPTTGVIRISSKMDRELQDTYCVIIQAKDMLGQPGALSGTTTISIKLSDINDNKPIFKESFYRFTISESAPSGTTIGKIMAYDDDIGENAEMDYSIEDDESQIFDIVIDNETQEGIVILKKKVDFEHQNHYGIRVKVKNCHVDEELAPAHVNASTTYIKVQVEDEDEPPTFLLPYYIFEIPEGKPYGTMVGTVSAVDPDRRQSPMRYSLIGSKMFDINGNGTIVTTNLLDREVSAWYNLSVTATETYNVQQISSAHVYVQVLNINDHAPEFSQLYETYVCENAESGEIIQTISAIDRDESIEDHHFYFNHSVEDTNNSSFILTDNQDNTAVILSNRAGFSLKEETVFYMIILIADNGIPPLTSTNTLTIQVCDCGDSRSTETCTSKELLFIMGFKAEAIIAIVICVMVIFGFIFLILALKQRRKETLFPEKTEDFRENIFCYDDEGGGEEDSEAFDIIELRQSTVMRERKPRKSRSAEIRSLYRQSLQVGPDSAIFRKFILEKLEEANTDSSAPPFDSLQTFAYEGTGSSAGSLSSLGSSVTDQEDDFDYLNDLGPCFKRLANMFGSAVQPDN

[4] = target: T4, rhCDH19(1-43)::FLAG::rhCDH19(44-141)::caCDH19(141-770) (construct R, rh EC1) (rhesus macaque/dog chimera)
T4 construct: leader (1-43 of the entry) left out

Measured: binding result

B1: hu anti-<huCDH19> 16A4.1 (1-474)(T144L) VH::huIgG1z + 16A4.1 (1-235)(G141Q) VL::huKLC (Ab ID 14071) (antibody)
heavy: QVQLQESGPGLAKPSETLSLTCTVSGDSITSYYWSWIRQPPGKGLEWIGYIYYSGSTNYNPSLKSRVTISVDTSKNQFSLKLSSVTAADTAVYYCARDQRRIAAAGTHFYGMDVWGQGTLVTVSS[here human IgG1 constant region without letters]
light: [here about 100 residues without letters][here about 120 residues without letters]
notes: Engineered variant of 16A4; the entries already carry the changes; Bin 5
binds: [1] | [2] | [3] | [4]
